Test results taken from PubChem BioAssay AID1508624 (National Center for Advancing Translational Sciences (NCATS), 2021).
Screen size: about 48,000 compounds; about 120 (0.25%) were called active. Another 4% or so got no clear call; they are omitted. Calls follow the shape of the dose curve; as a rule, active = well fitted activation curve with a large enough effect; inconclusive = small, poorly fitted or top-dose-only effect, or another doubt; inactive = no such curve, though single readings can be large or run the other way. The entries are a selection whose mix differs from that of the whole data set. The source gives no active or inactive call for entries shown without one.

Experiment: Primary qHTS for Identification of Small Molecule Activators of Huntingtin-Antisense Promoter Activity; also: nearly all actives have a fitted effect of over 55% in size
Settings: HEK293 HTT-AS promoter firefly luciferase reporter, 24 h; activity change, positive = activation: at 57.5 µM (top of the series), percent change from vehicle, -100% = no light
Text: Assay Provider: Russell L. Margolis M.D.
Department Neurology, Johns Hopkins University School of Medicine, Baltimore, MD
Huntington's Disease (HD) is a neurodegenerative disorder caused by a CAG repeat expansion in exon 1 of huntingtin (HTT). While there are currently no disease-modifying treatments for HD, recent efforts have focused on development of nucleotide-based therapeutics to lower HTT expression. As an alternative to siRNA or oligonucleotide methods, we hypothesized that suppression of HTT expression might be accomplished by small molecules that either (1) directly decrease HTT expression by suppressing HTT promoter activity or (2) indirectly decrease HTT expression by increasing the promoter activity of HTT-AS, the gene antisense to HTT that appears to inhibit expression of HTT.
We developed and employed a high throughput screen for modifiers of HTT and HTT-AS promoter activity using luminescent reporter HEK293 cells; of the 52,041 compounds tested, we identified 898 replicable hits. We used a rigorous stepwise approach to assess compound toxicity and the capacity of the compounds to specifically lower huntingtin protein in 5 different cell lines, including HEK293 cells, HD lymphoblastoid cells, mouse primary neurons, HD iPSCs differentiated into cortical-like neurons, and HD hESCs. We found no compounds which were able to lower huntingtin without lowering cell viability in all assays, though the potential efficacy of a few compounds at non-toxic doses could not be excluded.
SEQUENCE No. (1, 2, 3, etc.); […] (e.g., Cells, Incubation, Reagent, etc.); VALUE and DESCRIPTION.
1; Reagent; 4 uL; 2,500 Hek293 luciferase reporter cells per wells
3; Compound; 23 nL; Control inhibitor / compound library
5; Reagent; 2.5 uL; Firefly Luc reagent; Dual-Glo Luciferase Reporter Assay System (Promega)
6; Time; 10 min; room temperature incubation
7; Detection; Luminescence; FLuc
NOTES (numbers refer to sequence above)
1; High-throughput screening, measuring luminescence from a Hek293 luciferase reporter, was performed in 1,536 well white-walled tissue-culture treated plates. 2,500 cells were plated in 4 µL of Opti-MEM per well using a Multidrop Combi Reagent Dispenser (ThermoFisher).
2; Assay plates were cultured for 24 hours.
3; Control inhibitor (PTC124; final concentration of 50 uM) and compound library (at final concentrations of 460 nM - 57.5 uM) were added to the assay plate using the Kalypsis Pintool Robotic System equipped with 1536 pinheads.
4; Cells were then incubated for 24 hours at 37 degrees C prior to luminescence measurements.
5; In all cases, luminescence was measured using the Dual-Glo Luciferase Reporter Assay System (Promega) following the manufacturer's instructions.
6; Room temperature incubation.
7; Luminescence signal was obtained using the PerkinElmer ViewLux plate reader. Results were normalized to vehicle control (0% activity) and zero RLU (-100% activity).
Potency is read from the fitted curve at half-maximal effect.

| Compound | activity change, positive = activation | Potency |
| --- | --- | --- |
| COc1ccccc1N1CCN(C(=O)c2cc3c(=O)oc4ccccc4c3s2)CC1 | inactive: -8.91% | – |
| N#Cc1ccccc1OCC(=O)N1CCN(c2ccccc2F)CC1 | 2.47% | – |
| CCOc1ccc(C2C(=O)N(C3CCCCCC3)CC(=O)N2CCc2ccc(Cl)cc2)cc1OC (stereo unspecified) | -34.2% | – |
| CCCc1cc(=O)[nH]c(Nc2ccc(C)c(O)c2)n1 | -3.64% | – |
| COC(=O)c1ccc(NC(=O)CC2C(=O)N(c3ccc(C)cc3)C(=O)N2Cc2ccc(OC)cc2)cc1 (stereo unspecified) | -11.6% | – |
| Cc1cccc(CCNC(=O)c2c[nH]c3ccc(S(=O)(=O)Nc4ccccc4F)cc3c2=O)c1 | inactive: -46% | – |
| COC(=O)c1ccc(NC(=O)CC2C(=O)N(c3cccc(C)c3)C(=O)N2C2CCCC2)cc1 (stereo unspecified) | -10.1% | – |
| COC(=O)c1cc2oc3ccccc3c2n1CC(=O)Nc1ccc(N(C)C)cc1 | 33.8% | – |
| Cn1c(=O)c(F)c(Nc2ccc(I)cc2F)c2c(=O)n(C[C@@H](O)CO)cnc21 | inactive: -30% | – |
| COc1ccccc1CN1C(=O)CN(C2CCCCCC2)C(=O)C1c1ccc(C)cc1 (stereo unspecified) | -0.696% | – |
| CN(C)S(=O)(=O)c1ccc(C(=O)NC2CC(=O)N(c3ccc4c(c3)OCCO4)C2)cc1 (stereo unspecified) | inactive: -29.3% | – |
| COc1ccc(NC(=O)CSc2nc(-c3ccco3)nc3cc(=O)[nH]n23)cc1 | -2.91% | – |
| O=S(=O)(Nc1ccc(-c2ccc(N3CCCC3)nn2)cc1)c1cccc(C(F)(F)F)c1 | -2.79% | – |
| Cc1cc(C(=O)Nc2c(C)nn(Cc3ccc(F)cc3)c2C)no1 | -10.6% | – |
| CC1Cc2cc(S(=O)(=O)CCC(=O)Nc3ccc(F)c(Cl)c3)ccc2N1C(=O)C1CC1 (stereo unspecified) | -32.8% | – |
| O=C(NC1CC1)c1cccc(-c2ccc3c(NC(=O)C4CC4)n[nH]c3c2)c1 | inactive: -26.6% | – |
| CCc1ccc(NC(=O)CC2C(=O)N(c3cccc(C)c3)C(=O)N2Cc2ccco2)cc1 (stereo unspecified) | -8.52% | – |
| COc1cccc2cc(C(=O)NCCc3c(C)[nH]c4ccc(F)cc34)c(=O)oc12 | inactive: 5.11% | – |
| CC(C)(C)c1ccc(-c2nc(SCC(=O)Nc3ccccc3F)n3[nH]c(=O)cc3n2)cc1 | -9.45% | – |
| Cc1ccccc1NC(=O)c1c(C)oc2ccc(O)c(CN3CCN(C)CC3)c12 | -5.95% | – |
| Cc1nc2ccn(Cc3cccs3)c(=O)c2cc1C(=O)N1CCN(c2ccccc2F)CC1 | -18.5% | – |

| Compound | activity change, positive = activation | Potency |
| --- | --- | --- |
| O=C1C(=O)N(C2CCN(C(=O)c3ccccc3Cl)CC2)CCN1Cc1ccc(F)cc1 | -1.21% | – |
| COc1cc(=C2C=c3ccccc3=N2)[nH]c1=Cc1[nH]c(C)cc1C | inactive: -46.6% | – |
| COc1ccccc1CNC(=O)CCS(=O)(=O)c1ccc2c(c1)CCN2C(C)=O | -7.63% | – |
| Cc1ccc(-n2ncc3c(Nc4cccc(C)c4C)ncnc32)cc1 | inactive: -19.7% | – |
| CC1Cc2cc(S(=O)(=O)NCc3ccccc3Cl)ccc2N1C(=O)C1CCC1 (stereo unspecified) | inactive: -80.1% | – |
| CCOc1ccc(NC(=O)c2ccc(-c3nc(COc4ccccc4)c(C)o3)cc2)cc1 | -11.9% | – |
| CCOc1ccc(C(=O)Nc2ccc3nc(SCc4ccccc4)sc3c2)cc1 | inactive: -17.5% | – |
| COc1ccc(CN2COc3ccc4c(oc(=O)c5ccccc54)c3C2)cc1OC | -0.224% | – |
| Cc1nn(-c2ccc(N3CCCCC3)nn2)c(C)c1CCC(=O)NCc1ccccc1F | -15.6% | – |
| Nc1nc(Nc2ccc(S(N)(=O)=O)cc2)nn1C(=O)c1c(F)cccc1F | inactive: -33% | – |
| CCOC(=O)c1cccc(NS(=O)(=O)c2cn(C)c(C)n2)c1 | inactive: -13.7% | – |
| CCOC(=O)c1ccc(NC(=O)c2ccc3c(c2)NC(=O)c2ccccc2S3)cc1 | -23.6% | – |
| CS(=O)c1ccc(-c2nc(-c3ccc(F)cc3)c(-c3ccncc3)[nH]2)cc1 (stereo unspecified) | inactive: -24.5% [at 116 µM, percent change from vehicle, -100% = no light] | – |
| O=C(O)CCc1nc2ccccc2[nH]1 | inactive: -10.5% | – |
| COc1ccc2c(c1)CCc1c(C(=O)Nc3cc(C)ccc3O)noc1-2 | 79.2% | – |
| COc1cc(-c2nnc(SCC(=O)Nc3ccc(F)c(Cl)c3)o2)cc(OC)c1OC | 6.42% | – |
| COc1cccc(C(=O)Nc2ccccc2OCc2cc(=O)n3cc(C)ccc3n2)c1 | inactive: -3.77% | – |
| COc1ccc(-c2nc(C)c(CCNC(=O)Cc3ccc(F)cc3)s2)cc1OC | inactive: -7.47% | – |
| CCCc1cc(=O)[nH]c(Nc2ccc(C(=O)O)cc2)n1 | -1.5% | – |
| CC1(C)CC(=O)c2c(oc3c(Cl)cc(NS(=O)(=O)c4ccc(Cl)cc4)cc23)C1 | -4.82% | – |
| COc1cc(C2C(=O)N(C3CCCCCC3)CC(=O)N2CCc2ccccc2)ccc1OC(C)C (stereo unspecified) | 1.97% | – |

| Compound | activity change, positive = activation | Potency |
| --- | --- | --- |
| Cc1ccc(C)c(-n2c(N)c(C#N)c3nc4ccccc4nc32)c1 | -16.2% | – |
| Cc1nc2ccn(Cc3ccco3)c(=O)c2cc1C(=O)NCc1ccccc1 | -19.2% | – |
| CCCCOc1cccc(C(=O)N(Cc2ccc(C)o2)c2ccccn2)c1 | inactive: -48% | – |
| C[C@@H](Oc1ccc2[nH]nc(C=Cc3cnn(CCO)c3)c2c1)c1c(Cl)cncc1Cl | inactive: -38% | – |
| CCc1ccc(CNC(=O)c2cc3c(=O)n(Cc4cccs4)ccc3nc2C)cc1 | -27.1% | – |
| O=C(CSc1cn(CCNC(=O)c2c(F)cccc2F)c2ccccc12)Nc1ccc(F)cc1 | inactive: -19.8% | – |
| CC(C)C[C@H](NC(=O)CNC(=O)c1cc(Cl)ccc1Cl)B1OC(=O)CC(CC(=O)O)(C(=O)O)O1 (stereo partly specified) | inactive: -46.8% | – |
| COC(=O)c1cc2oc3ccccc3c2n1Cc1nc(-c2cccc(C)c2)oc1C | 13.4% | – |
| CCOc1ccc(S(=O)(=O)Nc2cc3c(C(=O)OC)c(COC)oc3c3ccccc23)cc1 | -28.5% | – |
| COc1ccc(S(=O)(=O)N(CC(=O)Nc2cc(Cl)ccc2C)Cc2ccccc2)cc1OC | -34.8% | – |
| COc1ccc(NCc2cc3cc4c(cc3n(CC(=O)Nc3ccc(C)c(C)c3)c2=O)OCO4)cc1 | inactive: 15.6% | – |
| COc1ccc(N2C(=O)Cc3cc(OC)c(OC)cc3C2c2ccc(F)cc2)cc1 (stereo unspecified) | -17.3% | – |
| COc1ccc(OC)c(CNC(=O)C2CCCCN2S(=O)(=O)c2ccc(F)cc2)c1 (stereo unspecified) | -17.6% | – |
| COc1ccc(CCN2C(=O)CN(C3CCCCCC3)C(=O)C2c2ccc(Cl)cc2)cc1OC (stereo unspecified) | -23% | – |
| COc1cccc(CNC(=O)c2ccc3nc(CCc4ccccc4)oc3c2)c1OC | inactive: 26.7% | – |
| CCC(=O)Nc1ccc(-c2nc3ncccc3o2)cc1C | – | active: 11.2 µM |
| CC(C)c1ccc2oc(-c3ccc(Cl)c(NC(=O)Cc4ccccc4)c3)nc2c1 | -69.9% | – |
| Cc1cccc(-c2nc(CSCC(=O)N3CCN(c4ccccc4)CC3)c(C)o2)c1 | inactive: -30% | – |
| O=C(Nc1cc(Cl)cc2c1[nH]c1cnccc12)c1cccnc1 | inactive: -41.1% | – |
